Measured values from article PMC4336329 (PLoS ONE, 2015).
The whole screen tested about 310,000 compounds, of which about 2,200 (0.71%) showed an effect of 50% or more. Effects have a minus sign here. This is one part of the list.

target: human ether-à-go-go-related gene (hERG) potassium channel (human, UniProt Q12809); test: primary screen, population patch clamp on CHO cells stably expressing hERG
Sequence (Q12809 whole entry, looked up): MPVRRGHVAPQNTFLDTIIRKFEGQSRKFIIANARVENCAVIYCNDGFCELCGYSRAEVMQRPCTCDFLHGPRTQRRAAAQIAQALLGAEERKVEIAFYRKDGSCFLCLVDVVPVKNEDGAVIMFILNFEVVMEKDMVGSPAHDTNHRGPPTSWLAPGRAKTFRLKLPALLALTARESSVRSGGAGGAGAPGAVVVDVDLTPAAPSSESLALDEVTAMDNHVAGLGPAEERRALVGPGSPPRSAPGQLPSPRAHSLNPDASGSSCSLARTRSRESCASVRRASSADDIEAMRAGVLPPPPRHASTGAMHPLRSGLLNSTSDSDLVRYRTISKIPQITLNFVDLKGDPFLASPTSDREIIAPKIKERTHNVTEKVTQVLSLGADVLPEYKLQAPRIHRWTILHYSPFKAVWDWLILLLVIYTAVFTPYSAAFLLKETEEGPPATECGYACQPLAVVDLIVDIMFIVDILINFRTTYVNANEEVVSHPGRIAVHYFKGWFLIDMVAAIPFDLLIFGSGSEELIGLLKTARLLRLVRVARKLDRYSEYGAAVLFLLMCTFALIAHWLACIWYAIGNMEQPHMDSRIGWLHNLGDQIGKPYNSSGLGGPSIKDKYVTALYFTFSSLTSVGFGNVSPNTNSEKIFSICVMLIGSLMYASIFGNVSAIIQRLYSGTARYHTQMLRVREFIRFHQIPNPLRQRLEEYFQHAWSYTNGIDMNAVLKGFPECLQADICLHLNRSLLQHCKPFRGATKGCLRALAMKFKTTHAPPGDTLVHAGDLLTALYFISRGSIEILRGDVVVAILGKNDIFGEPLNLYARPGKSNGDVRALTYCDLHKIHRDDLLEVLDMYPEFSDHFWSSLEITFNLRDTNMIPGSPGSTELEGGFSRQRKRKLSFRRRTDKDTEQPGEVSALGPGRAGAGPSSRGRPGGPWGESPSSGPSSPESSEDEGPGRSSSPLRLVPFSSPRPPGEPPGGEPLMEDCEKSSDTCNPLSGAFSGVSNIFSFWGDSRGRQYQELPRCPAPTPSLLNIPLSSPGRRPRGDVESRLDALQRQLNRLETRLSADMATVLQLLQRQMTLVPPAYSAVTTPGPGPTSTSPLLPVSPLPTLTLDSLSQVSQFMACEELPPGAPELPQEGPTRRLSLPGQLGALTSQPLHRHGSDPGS

SMILES | hERG current change (%, negative = inhibition) at 1uM [%]
Nc1ccc2nc(SCc3cccc(F)c3)sc2c1 | 7.94
CCc1ccccc1NC(=O)C1=CC(c2ccc(OC)c(OC)c2)=NS(=O)(=O)N1C | 9.71
Cc1nn(C)cc1CN(C)C(=O)c1cc(-c2ccccc2)nc2ccc(Br)cc12 | 12.6
CN(CC(=O)NCc1ccco1)S(=O)(=O)c1ccc2c(c1)c(=O)n(C)c(=O)n2C | 5.04
COC(=O)c1ccc2nc(C)cc(Nc3ccccc3C)c2c1.Cl | -26
COc1ccc(C(CNC(=O)c2cccc(S(=O)(=O)N3CCCCC3)c2)N2CCCC2)cc1 (stereo not drawn) | -3.66
FC(F)(F)c1ccc(/C=N/NC(=S)NC2CCCCC2)cc1 | 4.96
Cc1cccc(NC(=O)c2sc(NC(=O)COc3ccccc3)c(C#N)c2C)c1C | 11.8
CCc1noc(C)c1C(=O)N(C)CC(=O)Nc1ccc(F)c(F)c1F | 14.2
COc1ccc(OC)c(NC(=O)COC(=O)C2CCN(C(=O)c3ccc(Cl)cc3)CC2)c1 | -49.1
COc1ccccc1CCC(=O)NNC(=O)c1ccc(Br)cc1 | 9.37
O=C(Cn1cnc2ccccc21)N/N=C/c1ccccc1 | 4.49
COc1ccc2nc(NCc3ccccc3)[nH]c2c1 | -7.49
O=C(NC(=S)Nc1cccc2c(O)cccc12)c1cccc(Br)c1 | 8.92
O=C(COc1ccccc1)N1CCN(S(=O)(=O)c2ccc(Br)cc2)CC1 | -0.677
CC(C(=O)N1CCCC1)c1ccc([N+](=O)[O-])cc1 (stereo not drawn) | 12.1
COc1ccc(N(C(=O)CNC(=O)c2ccco2)C(C(=O)NCC2CCCO2)c2ccccc2)c(OC)c1 (stereo not drawn) | 13
CCn1cc(C(=O)Nn2cnnc2)c(=O)c2ccc(C)nc21 | 7.71
O=[N+]([O-])c1ccccc1NCc1ccccc1Cl | -5.53
CCN(CC)C(=O)c1ccc(-c2nnc(Nc3cccc(O)c3)c3ccccc23)cc1 | 14.2
Cc1onc(-c2c(Cl)cccc2Cl)c1C(O)c1ccccc1 (stereo not drawn) | 10.6
Cc1nnc(SCC2=C(C(=O)O)N3C(=O)C(NC(=O)Cn4cnnn4)C3SC2)s1 (stereo not drawn) | 10.4
CN(C)c1ccc(N=Nc2ccccc2C(=O)OCC(=O)N(C)c2ccccc2)cc1 | 10.5

SMILES | hERG current change (%, negative = inhibition) at 1uM [%]
CCCCN(CC)CCNC(=O)c1nn(-c2ccc(OC)cc2)c(=O)c2c1c1ccccc1n2C | 2.97
COc1ccc(Cn2c(=O)c3[nH]cnc3n(-c3ccc(C)cc3)c2=O)cc1 | 1.13
Cc1ccc(-n2ccnc(SCC(=O)NC3CCCC3)c2=O)cc1Cl | 10.1
O=C(Cc1ccccc1)NCc1nc2ccccc2[nH]1 | -2.39
CC(=O)NC(=S)Nc1ccc(S(=O)(=O)N(C)Cc2ccccc2)cc1 | 11.1
O=C1/C(=C/c2ccc3c(c2)OCO3)CCC/C1=C\c1ccc2c(c1)OCO2 | 9.14
CCOC(=O)CNC(=O)Cn1cnc2c(nnn2-c2ccc(F)cc2)c1=O | -1.18
CC(=O)c1cccc(NC(=O)N2CCCC2C(=O)NCc2ccc(F)cc2)c1 (stereo not drawn) | 4.83
CC1CCCN(S(=O)(=O)c2ccc(NC(=O)[C@@H]3CCCN3C(=O)c3cccs3)cc2)C1 (stereo partly drawn) | 5.35
Br.O=C(CN1CCSC1=NCc1ccccc1)c1ccc(Cl)c(Cl)c1 | 10.5
CC(=O)c1cc(-c2ccccc2)n(CC(=O)N2CCCCC2)c1C | 4.18
OC1(c2ccc(F)cc2)CC2CCC(C1)N2Cc1nnnn1C1CCCCC1 (stereo not drawn) | 7.99
Cc1ccccc1NC(=O)Cc1c(O)c2ccccc2[nH]c1=O | 4.48
CC(C)(C)c1ccc(C(=O)OCC(=O)NCc2ccco2)cc1 | 6.2
CC(OC(=O)c1cccc(S(=O)(=O)N2CCCCC2)c1)C(=O)NC1CCCCC1C (stereo not drawn) | -8.47
CC(=O)c1c(C)[nH]c(C(=O)COC(=O)C2CC2)c1C | 12.2
Cc1ccc(Cl)cc1N1CCN(C(=O)CN(c2ccccc2)S(=O)(=O)N(C)C)CC1 | 7.58
Cc1snnc1C(=O)NC(=S)Nc1ccccc1 | 12.4
O=[N+]([O-])c1ccc(Oc2cccc3cccnc23)c([N+](=O)[O-])c1 | -6.92
O=C(/C=C/c1ccc(Cl)cc1)N1CCN(c2ccccn2)CC1 | -10.6
CCCn1c(CN2CCN(C)CC2)nc2ccccc21 | 6.29
Cc1cc(C)n2nc(C(=O)N/N=C/c3ccco3)nc2n1 | 12.1
